# Measurements: article PMC5836133
# The other results are listed elsewhere or left out. At the low end of the ranking the order means little.
# System: T1, GST-NbGlk1(82-244)
# T1 sequence: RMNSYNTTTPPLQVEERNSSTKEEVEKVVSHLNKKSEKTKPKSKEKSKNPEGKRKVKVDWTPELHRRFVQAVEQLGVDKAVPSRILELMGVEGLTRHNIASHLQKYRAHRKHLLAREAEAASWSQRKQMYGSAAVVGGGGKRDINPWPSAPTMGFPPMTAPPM
# Assay: protein-binding microarray;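 further: rank-based score ranging −0.5 to +0.5 with E above 0.45 taken as significant binding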
# Details: NbGlk1 is a Golden2-like transcription factor of Nicotiana benthamiana; high values mean tight binding; most listed sequences are background and not binding sites; double strand, one strand shown
row,Sequence,binding signal [E-score]
1,ATTTCAGC,0.188
2,ATTTTCCG,0.332
3,CAATGCGA,-0.0546
4,AAGTATCA,0.151
5,ATAATGAC,0.12
6,AGAACGGC,-0.166
7,ATCATAAA,0.232
8,AAAATCTG,0.478
9,AATTGTCA,-0.0837
10,CAAGGCCC,-0.247
11,AAGGCCGC,-0.28
12,ACTGGCAC,-0.39
13,AATAAACA,0.0909
14,AAGTCCCC,-0.237
15,ATCTTTCA,0.247
16,ATGCCCGA,-0.0881
17,ACCGTTTA,0.0592
18,ACGTGGTG,-0.271
19,CAAGTCAA,-0.112
20,ATCAAAGA,0.166
21,ATTTTGCA,0.238
22,ATCCCCCA,0.168
23,ACGGCCGC,-0.247
24,AAGTTGGA,0.0478
25,ATTCCAAG,0.205

row,Sequence,binding signal [E-score]
1,CACAGCAG,-0.0173
2,AGACACTA,-0.115
3,ACGTCCCA,-0.293
4,ACCCGGAC,-0.228
5,AGCTTTAT,-0.0619
6,ACACAATA,0.226
7,ATATACAC,0.0924
8,CAACCGAG,-0.204
9,AAAGCGTA,0.0465
10,AAGTTTGG,-0.0316
11,AGCGGTAC,-0.0799
12,ACTCATCG,-0.0979
13,ATGCCGTA,0.0205
14,ACTCTTGG,-0.074
15,CAATTGCC,-0.0514
16,AGGAGCGC,-0.161
17,ATTAGTGC,0.0058
18,ACGTATAA,0.241
19,ACGGATAT,0.381
20,AGTAGTAG,-0.0939
21,AATGCAGT,-0.0297
22,AGTAAACT,-0.118
23,ACTACGGC,-0.172
24,AAGATTGA,0.0479
25,AGGGTCTA,-0.268

row,Sequence,binding signal [E-score]
1,ACCTTCTC,-0.113
2,AATTGTGA,0.0924
3,AGTTATTC,0.0977
4,AGCATGCC,-0.212
5,ATCGGCCA,-0.00614
6,ACAAACGT,-0.0435
7,AATGGTCT,-0.2
8,ACGCTGTG,-0.179
9,ACACCGGC,-0.287
10,ATGAGATG,0.0471
11,AATCGGAG,0.182
12,ACACTTAT,0.0533
13,CAAGGCTC,-0.22
14,ATCAGGAA,0.288
15,ATGGTTTG,-0.109
16,AGGTTACA,0.053
17,AGGTGTCC,-0.195
18,ATACACTG,-0.0577
19,ACAAAGAG,-0.012
20,AAAACCAA,0.0786
21,AAGTGCTG,-0.187
22,ATCTAGAC,0.287
23,ATTGGCGA,0.123
24,ATTCTCTC,0.269
25,ACATATTA,0.172

row,Sequence,binding signal [E-score]
1,ATGAGCAT,-0.17
2,ACCCACGT,-0.207
3,ACAAGAAC,-0.00628
4,AGAGAAGA,-0.00289
5,AGGCTAGC,-0.285
6,ACGATCGA,0.134
7,ACGCGACA,0.0352
8,AGAGTACT,-0.0962
9,CAACGTAA,0.148
10,ATGTCTGA,0.0128
11,ATATTGAA,0.203
12,AGCAGGCG,-0.248
13,ATAGCCCG,-0.162
14,CACGGAGA,0.0492
15,AAGTACGA,0.127
16,CACGTGCA,-0.00175
17,CACCCGAG,-0.155
18,ACAGACCT,-0.172
19,ATCCGCCA,0.254
20,CACTGACG,-0.0467
21,ACACGCAG,-0.0752
22,AGCCTTCA,-0.282
23,AATTGGAG,0.0169
24,AGGCCAAC,-0.225
25,AAGAGCGT,0.0232

row,Sequence,binding signal [E-score]
1,ATCTGTGA,0.344
2,CACAAGTC,-0.0923
3,ATCCTTAA,0.226
4,ATTCGGAA,0.123
5,AGGAAGCC,-0.236
6,AATGAAAA,0.0916
7,CAGCGTTA,0.0912
8,AACCTTCG,-0.227
9,AAAACTGC,-0.0562
10,CAGATATA,0.173
11,ATATTTTC,0.363
12,ACCAAGTG,-0.0953
13,CACACGTC,-0.166
14,ACGTTCCC,-0.27
15,ACTTCTAG,-0.14
16,AGATTACA,0.477
17,AATGTCAA,0.015
18,AGTATGAG,0.00401
19,ATATCGAC,0.32
20,CAGCACTA,-0.16
21,ATAGCTGA,-0.0287
22,ACAGTGGA,0.00465
23,AAAAACAT,-0.00134
24,AGATTAAT,0.151
25,CAGCCAAA,0.00889

row,Sequence,binding signal [E-score]
1,ATCTGTGC,0.231
2,ACTATCCG,0.111
3,CAGCAGGG,-0.211
4,AAAGCGAT,0.215
5,AAATTTTC,0.273
6,AAAGCGCT,-0.123
7,AGTCACCG,-0.156
8,AATCCTAG,0.388
9,ACTTTCGA,0.0194
10,CACCGACC,-0.156
11,ACTAACCT,-0.122
12,ATTATGAA,0.0803
13,ATAGCTAC,-0.046
14,ACTTAACA,0.108
15,ATCCATGC,0.206
16,AATTGCAG,0.0378
17,ACCGAATG,-0.0831
18,ATGGTGGC,-0.0809
19,AGGCGTGG,-0.207
20,AGCGCTAA,-0.189
21,ATAAAAGC,0.0351
22,AATCCCTG,0.283
23,ACTACTCG,0.0167
24,AGTTTACC,-0.0752
25,AGGGTACA,-0.0829

row,Sequence,binding signal [E-score]
1,AGCGGATC,0.324
2,ATGATAAA,0.171
3,ACAATCGT,0.099
4,AGCACCGG,-0.221
5,ATCGGAGG,-0.104
6,AAGTCCAA,-0.142
7,ACGCACTA,0.0237
8,AGTAAGTA,0.193
9,CACGTATA,0.17
10,CAGATCGC,0.417
11,AAAGGACT,-0.0666
12,ATTTTGTA,0.298
13,ATGGCGCA,-0.0516
14,ACAATGTA,0.0949
15,CACTTACC,-0.155
16,CAAACGAG,0.0018
17,AATTTCTA,0.152
18,AAATGGTC,-0.176
19,CACGGCGC,-0.264
20,CACCCCTG,-0.163
21,ATACATAG,0.163
22,CAAGGTCG,-0.0443
23,ATGTCGGA,0.000838
24,ATAGTCGG,-0.0699
25,ATTAGCCG,-0.0312

row,Sequence,binding signal [E-score]
1,ATGCGCTC,-0.157
2,ATTATACC,0.0494
3,ATTACGGA,0.366
4,CAAAATCA,0.314
5,AATAACAC,0.0467
6,AGGACTAC,-0.286
7,AACTCTAC,-0.0761
8,ACATTACC,0.0562
9,CAAGTTTA,-0.0779
10,CACAGCCG,-0.22
11,ATATCGTC,0.328
12,AAACCCTT,-0.17
13,AAGTGTAG,-0.0255
14,AGTACCAG,-0.222
15,ATAGAGGG,-0.0503
16,ATATTCGA,0.293
17,ACGTACTG,-0.116
18,AGGTATGA,0.0493
19,ACCGAGCA,-0.132
20,AAGAACAG,-0.103
21,AACTTTCG,0.00927
22,ATCATCTA,0.179
23,ATTCTTTC,0.202
24,AGGAGAAA,0.0307
25,CACAGAGC,-0.247

row,Sequence,binding signal [E-score]
1,AAGATACA,0.0411
2,AGCAGTGA,-0.15
3,ACATGAGG,-0.0661
4,AGGTGGAC,-0.193
5,ATTAGCGA,0.18
6,AATTTTAG,0.222
7,AAAGTTTA,-0.0636
8,AGCGTCCT,-0.358
9,ACGACATA,-0.075
10,AGGTGGGG,-0.228
11,ACACCGGG,-0.078
12,AAGCAACA,-0.104
13,ACACATAG,0.0105
14,ATCAATGG,-0.0285
15,ACAAAGGA,0.101
16,AGACAGGA,-0.0939
17,ATTCTCAA,0.329
18,AGATGCTC,0.0454
19,AGCTGGGC,-0.225
20,ACTGTCGG,-0.172
21,AATAAATG,0.083
22,CAATCCTC,0.269
23,AGAAGAAA,-0.0918
24,AGTTTCGG,-0.23
25,ACCATAAG,-0.143

row,Sequence,binding signal [E-score]
1,ACTGTTAG,-0.0303
2,ACAGATCT,0.356
3,ACAGCATA,0.121
4,ACTGCTTA,-0.0502
5,AAGAAGTG,-0.0817
6,AACCGTAC,-0.144
7,ACGTGCAA,0.121
8,CAGAATCC,0.447
9,AATGTTGG,-0.0396
10,ACCCTTCA,-0.235
11,CACTTATC,0.0299
12,ATCTAGTG,0.242
13,ACATGGAA,-0.00796
14,ACTACCAT,0.0314
15,CAAGAGTC,-0.264
16,ATTGAGCG,-0.0198
17,AAAATTCC,0.201
18,ACTTTGCG,-0.0202
19,AGCGGTTA,-0.027
20,ATGTACTC,-0.0476
21,AGAGCTCG,-0.166
22,CACTTCAG,-0.0681
23,AGGTCGCA,-0.263
24,AGCTGCAA,-0.0367
25,AGGTGAAC,-0.263

row,Sequence,binding signal [E-score]
1,ATATTCAA,0.213
2,ACCGGCTG,-0.227
3,AGAACCCA,-0.0964
4,AGGCTTTG,-0.116
5,CACCGAGA,0.078
6,AAGAACCG,-0.0573
7,AGTTATCG,-0.0524
8,AAATGTGA,0.0267
9,AATGGTAC,0.0533
10,AGCGTATA,0.00126
11,CAATAGGG,-0.00678
12,AACCGTAT,0.0843
13,ATAAGCCG,-0.105
14,ACGGTACG,-0.0118
15,ACGTTCGG,-0.0348
16,ACTCAGAT,0.255
17,AATGATAG,0.106
18,ACCGCTAT,-0.0288
19,AAAGGAAC,-0.0795
20,CAAAAAGG,0.0237
21,AAACTGAG,-0.057
22,ACCGCACA,-0.015
23,ATGCGGTG,-0.0278
24,ACTGTTCA,-0.104
25,AAAGAGGG,-0.194

row,Sequence,binding signal [E-score]
1,ATGACTTC,-0.214
2,ATCATCCC,0.0621
3,AGTTTCGA,-0.0151
4,AGGTCGTA,-0.0567
5,ACACGGCT,-0.235
6,ATCCTCTC,0.187
7,AACCATAT,0.128
8,AACCACCA,-0.055
9,CACAGCTA,-0.152
10,ATTAGAGG,-0.0306
11,ACCGTCGT,-0.14
12,AAAGTATC,0.243
13,AACAAGTG,-0.149
14,ACTCATGG,-0.139
15,ACGCGGGG,-0.168
16,AGCGTGGA,0.0641
17,ACTTGGCC,-0.116
18,AGTAGTTC,0.022
19,ACCACCCA,-0.0673
20,AAGCATAC,-0.104
21,ACGTAGAG,0.031
22,AATCGGTC,0.172
23,AGACCTGC,-0.184
24,ACAATAAC,-0.0904
25,AGCGCTGA,-0.0479

row,Sequence,binding signal [E-score]
1,ATCGGGCA,0.111
2,ACGATGCA,-0.0293
3,AAGTATGA,0.0906
4,ATCAGTTA,0.121
5,AACGTGCG,-0.114
6,CAACACAA,0.0838
7,ACGGAGCC,-0.13
8,AGAAAATC,0.479
9,AACCCTCC,-0.242
10,AACACTTA,0.0934
11,AGTAGGCA,-0.108
12,AAACCCAC,-0.198
13,CAATGATA,0.127
14,CACACATG,-0.132
15,AGAAGAGA,0.0203
16,CAATAGCC,-0.0908
17,ACAGGTAA,0.0116
18,AAGATCAG,0.222
19,AGGATCAA,-0.00503
20,AATAAACG,0.0778
21,ATATGGTA,0.228
22,CAAGCGAG,-0.113
23,ATTCCGGA,0.232
24,AGGCCTTA,-0.0972
25,AGTCATAA,0.0167

row,Sequence,binding signal [E-score]
1,CAGAGTCA,-0.0451
2,AGTGTGGG,-0.0288
3,CACAACGC,-0.0957
4,ATGTGTAA,0.176
5,ACGTACGG,-0.0688
6,ATCACCCC,-0.0506
7,AGCATTCA,-0.0872
8,AACCTCGA,0.0076
9,AACGCCCT,-0.233
10,AATCCTGT,0.371
11,ACAACTGC,-0.0596
12,CAATTTCG,0.206
13,ACCATGCT,0.0139
14,ATGCAAGA,0.106
15,ACGCCCAC,-0.167
16,ATGTGACA,0.0405
17,AGTGCAGG,-0.171
18,CACCTGCA,-0.0836
19,AAGTCGTA,-0.0359
